Data: the supplement of paper PMC3334620
The full ranking holds about 33,000 sequences; the median of “E-score (-0.5 to 0.5)” is about -0.056, and the highest 2% start at about 0.38. The list shows a part of the results.

The sequences below were run against Stb4 (UniProt P50104) (assay: PBM E-score (8-mer binding enrichment) (E-score (-0.5 to 0.5)); higher = stronger / more preferred TF binding; most listed sequences are background and not binding sites). Settings: protein concentration: 200 nM; construct: GST-DNA-binding domain.
How it was run: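 Each ungapped eight-base word and its reverse complement, pooled, received an E-score from the Universal PBM Analysis Suite. Underlying scans, normalised with masliner, recorded fluorescent anti-GST bound to GST-tagged yeast transcription factors. These were applied at about 100-200 nM to universal all-10-mer Agilent arrays double-stranded by primer extension.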

Row | Sequence | PBM E-score
1 | AAACTAAC | 0.0734
2 | ACTCGTTA | -0.0258
3 | ATCGTCAT | -0.231
4 | CACTAACA | -0.107
5 | ACACGAAC | -0.0584
6 | CGTTTCAC | 0.00258
7 | CCTTCAAC | -0.111
8 | CCCGTACG | 0.0714
9 | ACGACTGG | -0.0301
10 | CCTGCCTC | -0.0255
11 | CGGGGCAA | 0.13
12 | CTAGAATC | 0.0279
13 | GCTTGGCC | 0.0648
14 | CTGTCACC | 0.0195
15 | CTTTAAAG | -0.158
16 | CATGTCAG | -0.172
17 | GAAGCCTA | 0.117
18 | AGTTGACG | -0.097
19 | AGTGAGCC | -0.0295
20 | GATCAAAC | -0.0711
21 | CATCACTC | 0.0169
22 | TCAGCCCA | -0.11

Row | Sequence | PBM E-score
23 | CGGACACA | 0.134
24 | ACCGAAGT | 0.293
25 | GGGAGGAC | -0.0397
26 | ATGCCTCC | -0.134
27 | CCCTCAGA | -0.349
28 | AATAGTCC | -0.00049
29 | GAACCCCC | -0.0505
30 | AGACTATA | -0.0872
31 | AATTTCCT | -0.0502
32 | CAGGATCC | 0.0418
33 | TTAGAGAA | -0.144
34 | CACGGACG | 0.0862
35 | CGCTTGCC | 0.0497
36 | CAATTAAA | -0.0683
37 | CGACGTCA | -0.0255
38 | AGTAAACC | 0.062
39 | CATAATAC | -0.185
40 | ATTCTAGC | -0.0577
41 | CAGATATG | -0.0664
42 | TCAAAGAA | -0.305
43 | GTGGGTTA | -0.122
44 | ATACTAAT | -0.00279

Row | Sequence | PBM E-score
45 | GCATTGGA | -0.0208
46 | GCCATGCC | 0.0341
47 | GAAGGGTA | 0.146
48 | GATCTTGA | -0.0297
49 | CCAACAAC | -0.117
50 | AAGCGCCG | 0.252
51 | GGACGAAA | 0.118
52 | CCTCTACA | -0.25
53 | AAAGTTGA | -0.11
54 | ATGTTTGG | -0.0983
55 | AGGCTCAC | -0.103
56 | AGCATTTC | -0.0674
57 | CACTTAAA | -0.0891
58 | CTTCGGAA | 0.485
59 | GACCCCCC | -0.0614
60 | ATACTTCG | 0.257
61 | TAAAAGCA | 0.208
62 | AGGCCACC | -0.174
63 | TCTTGGAA | -0.111
64 | AGAATAAT | -0.0947
65 | AGCCGACA | 0.277
66 | CTATCTCC | -0.111

Row | Sequence | PBM E-score
67 | CGGTGATC | 0.115
68 | TGAACGCA | -0.149
69 | AATCTTCG | 0.0638
70 | AATCCTCC | 0.118
71 | ACGGCTGA | 0.0101
72 | CCTTCTTC | -0.0936
73 | AGCGACAC | -0.138
74 | AACTGTCG | -0.0418
75 | CATTACGC | 0.116
76 | ATGTGGGC | -0.0588
77 | CACAGCTA | -0.0955
78 | ACGGACGG | 0.142
79 | CGATAGGA | 0.0095
80 | GCTCCAGA | -0.0863
81 | AATCCCAC | 0.0491
82 | CGTCGCCC | -0.0819
83 | CCCCAGCC | -0.107
84 | ATAAGCAT | -0.0982
85 | CAGGTGGG | -0.0585
86 | CAAGATAC | -0.185
